Results reported in the supplement of paper PMC4604168 (melanoma cell lines).
This is one part of the list. Repeats are few or missing, and single values can be far off.

test system: IST-MEL1; assay: cell count relative to DMSO control; melanoma cells; higher = more viable cells; conditions: library dose: low library concentration; 72 h
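Also: cell number obtained by counting DAPI-stained nuclei in high-throughput microscope images with image analysis software, screen run in 1,536-well plates.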

SMILES	cell count [%]
COC(=O)c1sccc1S(=O)(=O)Nc1ccc(Nc2ccccc2)cc1OC + Oc1nc(-c2ccc(C(F)(F)F)cc2)nc2c1CSCC2 [XAV939] (first compound 1 µM, partner dose 2 µM)	97.4
O=C1NC(=O)/C(=C/c2ccc(-c3ccc(F)cc3O)o2)S1 + COc1cc(N2CCC(N3CCN(C)CC3)CC2)ccc1Nc1ncc(Cl)c(Nc2ccccc2S(=O)(=O)C(C)C)n1 [NVP-TAE684] (first compound 1 µM, partner dose 0.08 µM)	95.3
O=S(=O)(c1ccccc1)N(CC(F)(F)F)c1ccc(C(O)(C(F)(F)F)C(F)(F)F)cc1 + CCCCCCCCCCCC1=C(O)C(=O)C=C(O)C1=O [Embelin] (first compound 1.4 µM, partner dose 1.2 µM)	108
O=C(O)C(=O)Nc1sc2c(c1C(=O)O)CCNC2 + O=C1NC(=O)/C(=C/c2ccc(-c3ccc(F)cc3O)o2)S1 [AS252424] (first compound 1.66667 µM, partner dose 1 µM)	98.3
Cc1cc([N+](=O)[O-])ccc1NS(=O)(=O)c1cc(Cl)ccc1Cl + CC(C)CCN1c2nc(Nc3cc(F)c(O)c(F)c3)ncc2N(C)C(=O)C1C [BID1870] (first compound 1 µM, partner dose 0.2 µM)	81.8
COc1ccc2c(c1)CCC1C2CCC2(C)C(NCCCCCCN3C(=O)C=CC3=O)CCC12 (configuration not stated) + O=S(=O)(c1ccccc1)N(CC(F)(F)F)c1ccc(C(O)(C(F)(F)F)C(F)(F)F)cc1 [T0901317] (first compound 0.4 µM, partner dose 1.4 µM)	96.8
Oc1nc(-c2ccc(C(F)(F)F)cc2)nc2c1CSCC2 + CC(C)CCN1c2nc(Nc3cc(F)c(O)c(F)c3)ncc2N(C)C(=O)C1C [BID1870] (first compound 2 µM, partner dose 0.2 µM)	99.8
COc1cc(N2CCC(N3CCN(C)CC3)CC2)ccc1Nc1ncc(Cl)c(Nc2ccccc2S(=O)(=O)C(C)C)n1 + O=c1cc(-c2cccc3c2Sc2ccccc2S3)oc(N2CCOCC2)c1 [KU55933] (first compound 0.08 µM, partner dose 1 µM)	91.6
N#Cc1c(O)c2c(-c3ccc(-c4ccccc4O)cc3)csc2[nH]c1=O + CCCCCCCCCCCC1=C(O)C(=O)C=C(O)C1=O [Embelin] (first compound 2 µM, partner dose 1.2 µM)	101
c1cc(-c2cnn3cc(-c4ccc(OCCN5CCCCC5)cc4)cnc23)ccn1 [Dorsomorphin] + O=c1cc(-c2cccc3c2Sc2ccccc2S3)oc(N2CCOCC2)c1 [KU55933] (first compound 0.4 µM, partner dose 1 µM)	102
COc1ccc(-c2ccc3c(N4CCOCC4)nc(N4C[C@@H](C)O[C@@H](C)C4)nc3n2)cc1CO + CCN(CC)CCCCNc1ncc2cc(-c3cc(OC)cc(OC)c3)c(NC(=O)NC(C)(C)C)nc2n1 [PD173074] (first compound 0.02 µM, partner dose 0.1 µM)	99.8
N#Cc1c(O)c2c(-c3ccc(-c4ccccc4O)cc3)csc2[nH]c1=O + COc1ccc2c(c1)CCC1C2CCC2(C)C(NCCCCCCN3C(=O)C=CC3=O)CCC12 [U73122] (first compound 2 µM, partner dose 0.4 µM)	102
